# Over roughly 33,000 sequences, “E-score (-0.5 to 0.5)” has its median near -0.035; the highest 2% begin near 0.35. Some of the results follow.
# Biological target: T1, Pdr3 (UniProt P33200)
# T1 sequence: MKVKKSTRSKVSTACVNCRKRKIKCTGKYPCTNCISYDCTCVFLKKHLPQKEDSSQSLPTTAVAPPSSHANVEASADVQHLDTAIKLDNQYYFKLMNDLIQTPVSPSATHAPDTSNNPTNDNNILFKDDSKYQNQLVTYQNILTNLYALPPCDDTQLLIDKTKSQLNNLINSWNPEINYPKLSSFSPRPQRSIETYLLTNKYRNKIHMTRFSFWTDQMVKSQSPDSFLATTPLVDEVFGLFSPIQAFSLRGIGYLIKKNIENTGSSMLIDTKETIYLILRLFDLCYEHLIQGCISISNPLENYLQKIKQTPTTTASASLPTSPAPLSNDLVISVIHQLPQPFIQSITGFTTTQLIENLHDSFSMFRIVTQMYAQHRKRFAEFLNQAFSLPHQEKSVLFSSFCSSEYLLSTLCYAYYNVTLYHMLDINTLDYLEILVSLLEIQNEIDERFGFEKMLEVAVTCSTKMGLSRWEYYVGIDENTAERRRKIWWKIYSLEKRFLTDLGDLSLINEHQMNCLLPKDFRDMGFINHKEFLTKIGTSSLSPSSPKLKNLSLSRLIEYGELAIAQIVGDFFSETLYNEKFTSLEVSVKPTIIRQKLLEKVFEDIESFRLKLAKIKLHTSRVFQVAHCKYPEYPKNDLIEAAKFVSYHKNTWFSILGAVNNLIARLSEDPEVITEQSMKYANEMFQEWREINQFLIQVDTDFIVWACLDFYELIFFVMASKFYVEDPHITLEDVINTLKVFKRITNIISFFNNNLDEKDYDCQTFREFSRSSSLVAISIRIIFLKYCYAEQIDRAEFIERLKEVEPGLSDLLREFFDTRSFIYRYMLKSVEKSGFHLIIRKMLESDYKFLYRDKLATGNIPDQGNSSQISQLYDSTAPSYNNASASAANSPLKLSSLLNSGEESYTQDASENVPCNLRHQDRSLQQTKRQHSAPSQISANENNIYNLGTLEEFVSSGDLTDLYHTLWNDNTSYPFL
# Assay: PBM E-score (8-mer binding enrichment) (E-score (-0.5 to 0.5)); higher = stronger / more preferred TF binding; most listed sequences are background and not binding sites
# Conditions: protein concentration: 200 nM; construct: GST-full length
# Procedure, shortened: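 For each ungapped eight-base word taken together with its reverse complement, the Universal PBM Analysis Suite assigned an E-score. Binding data came from GST-tagged yeast transcription factors, applied at about 100-200 nM, on universal all-10-mer Agilent arrays made double-stranded by primer extension. Fluorescent anti-GST marked bound protein, and scans were normalised with masliner.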
row,Sequence,PBM E-score
1,AGCGCAGA,-0.0489
2,GTTAAGTA,-0.156
3,CTCATATA,0.0362
4,CGCATCCC,-0.0518
5,AATATCGA,0.143
6,CACGGGAG,0.0682
7,CAGCCGAA,0.0741
8,ACGGGCCT,0.0961
9,CGCCGGTA,0.13
10,AAACTATT,0.038
11,GATCCGGC,0.369
12,CTGATGCA,0.0307
13,ATGAATCC,0.121
14,GCATTCCA,-0.139
15,ATGGTGAA,-0.0127
16,AAAACTAA,-0.0512
17,AACAACAC,0.0662
18,AAGAGACT,-0.235
19,CCATTCGG,0.0853
20,CTCGGTAA,0.0593
21,AGATATCT,-0.188
22,AGATGGGC,0.0798
23,TAGTAATA,0.0153
24,ACTACCAT,-0.178
25,ACTAGGGA,-0.253

row,Sequence,PBM E-score
1,AAGCTTAT,-0.0146
2,CGAACCCG,0.261
3,CAATAGGA,-0.247
4,ACAAACGC,0.072
5,ACGCCGAA,0.105
6,CGAAACCA,0.0232
7,ACCGATAT,-0.0494
8,CATCAATA,-0.149
9,AACATTAC,-0.0261
10,ATACTACG,-0.00304
11,CAGCCATC,-0.0801
12,AGCGGGCG,0.0229
13,CAGGTCGG,-0.0196
14,ACCACTTA,-0.0715
15,GCAGGAGA,-0.0103
16,CTATCCGC,0.325
17,GACCCAGC,-0.219
18,CTTATTGA,-0.156
19,AATTAAAC,-0.00772
20,CAAAGTAC,-0.21
21,CACGAATA,-0.172
22,AGGCTTAG,-0.0695
23,GCAAGGAA,0.133
24,ACCCGTAT,0.0405
25,GCGTCTAC,-0.0787

row,Sequence,PBM E-score
1,AGATTCTA,-0.117
2,ATACATTG,-0.0766
3,ATGTAGGC,0.014
4,AGGCAACA,-0.129
5,AGGCGGAA,0.35
6,GGGCGGTA,0.195
7,TCGCACAA,-0.0677
8,TCGCTGAA,-0.0568
9,ATAAGTGG,-0.119
10,AACGTGCG,0.0349
11,CTACTTCA,-0.0398
12,CGCACCAC,0.119
13,CGAATTAG,0.0927
14,GCGGACTA,0.274
15,CACCTTCG,0.0557
16,GGGTATAC,-0.0104
17,ACCAGGAT,0.0428
18,CCTCCGGC,0.32
19,CTATATGA,-0.0848
20,TCCTGACA,-0.138
21,ACACCAAT,0.0269
22,ATTATAGG,-0.00934
23,AAACCAAC,0.00216
24,CAAGTGCA,-0.364
25,ATCGTATA,0.0981

row,Sequence,PBM E-score
1,AATTACAC,0.0166
2,GCAATTAC,0.0239
3,TAATCAAA,0.17
4,AAACCTAT,-0.169
5,CAATAAGG,-0.238
6,ACTGACCA,-0.242
7,ATGGCGGC,0.14
8,CCTCTACG,-0.233
9,GCAGATCA,-0.197
10,AAGGCAGG,-0.123
11,AACGTGAG,-0.166
12,CAGCCAAC,0.0126
13,CTATATAA,-0.168
14,AATATTCT,0.0456
15,CAGAACTG,0.136
16,AGCGGTAT,0.0555
17,CGGACCCA,0.302
18,ATTCCTAG,-0.106
19,ACGGCTTG,-0.00111
20,CGGTGTGC,-0.0493
21,ACTGTACA,-0.322
22,TAAAAAAA,-0.0786
23,GGTTGAGA,0.152
24,TATCTGGA,-0.174
25,ACTTCTAC,-0.0464

row,Sequence,PBM E-score
1,CGCCGACA,0.0423
2,CACGCCGC,0.0606
3,AGCGTGTC,-0.12
4,AAAGGCGA,-0.226
5,GGCGCTAC,-0.306
6,ACACGGTG,-0.022
7,CGGATCGA,0.315
8,CCAACCCA,-0.214
9,ATTCAGGC,-0.0195
10,CCACGGTC,-0.171
11,ACGACCAT,-0.192
12,AGGTCAAT,-0.126
13,GTGCATCA,0.0476
14,AGAGCGTC,-0.242
15,GGCAGCTA,-0.00286
16,TATAAGCA,-0.0259
17,GTACCTGA,-0.0359
18,AAGCACTG,-0.0717
19,CAAGGCAC,-0.0689
20,GTAGTTCA,-0.0233
21,CCCCGGGC,0.33
22,CTGTGGAC,-0.235
23,GAGGACTC,-0.181
24,CCGTTTGC,0.13
25,AACTCCTA,-0.0402

row,Sequence,PBM E-score
1,AGATATTG,0.0543
2,TGACGCAA,-0.165
3,AACTGCAT,0.0191
4,CACCGGCG,0.218
5,AATACTGT,0.0326
6,AACCTGAT,-0.14
7,CCAGCTTA,-0.117
8,AATATAAG,0.103
9,GGCAGAGA,0.0164
10,AGTGGGGG,-0.259
11,AGAAGTTG,-0.343
12,TAATGTGA,-0.0604
13,ATGGAGCC,-0.174
14,ACGAATCA,-0.00777
15,CGGCCATC,-0.0691
16,AATATGCT,-0.177
17,CAATCCTC,-0.228
18,ATGTACAG,-0.118
19,CAATTCGA,-0.283
20,GCTTATCC,0.167
21,CGACGTAG,-0.231
22,CAGTCCAC,-0.222
23,CCAGGTAG,-0.0187
24,ATCAGGAT,0.113
25,CTTCAAAG,-0.275

row,Sequence,PBM E-score
1,ACCGTACG,-0.233
2,GGATCGAC,0.268
3,ACAACCCT,-0.144
4,ATTTGAAA,0.0362
5,ACATCAAA,-0.0287
6,CCAAAGGA,-0.143
7,AGAGATGC,-0.0853
8,ATGTCCAG,-0.018
9,ATCCGGAT,0.465
10,ATCCGGTA,0.168
11,AGAATTTC,-0.00548
12,AGTTACCC,-0.137
13,GCCAATGA,-0.226
14,GACGCTGC,-0.0563
15,ACTCAACA,-0.109
16,GGACCGCA,0.243
17,CGTGAGGA,-0.063
18,CTTACCGC,0.151
19,AGACGCAG,-0.105
20,CTACCAAC,-0.0696
21,ACCCTAGA,-0.0874
22,ACTAAAGA,-0.166
23,CAGTTTTA,-0.125
24,CGGTTCAA,0.105
25,GGGGTAAC,-0.185

row,Sequence,PBM E-score
1,AGCGTGGA,-0.236
2,ATTGCTAG,-0.221
3,ACAGGCTC,-0.243
4,GGAGCTCA,-0.0163
5,CACAGCCG,0.237
6,AGTCCTTA,-0.108
7,CCGTTAAA,0.125
8,CTCAGAAC,-0.135
9,AACATCGA,-0.0014
10,GCCAGGGA,-0.0608
11,ATCACAAA,-0.0899
12,AGAGAACG,-0.181
13,ATGTTTAA,-0.187
14,AGAAGTCA,-0.0968
15,ATACTGTC,0.0455
16,AGGCGCGC,0.165
17,CTCCTGCA,-0.244
18,CATCCGAG,0.225
19,GGCACACA,0.0165
20,CGTGTTAA,-0.135
21,GCTTTCAA,-0.14
22,CGTGCCAC,-0.0378
23,CGACAGAA,0.188
24,ACAAAGGG,-0.197
25,CGGCTACG,0.0442

row,Sequence,PBM E-score
1,GAGTCTAA,-0.0923
2,AATGAACC,-0.136
3,ACCACCGT,0.0414
4,AATATTCC,0.362
5,ACGGGGGG,-0.222
6,AGCCTCAC,-0.198
7,CCGAATGA,0.285
8,CGGCGCAC,0.318
9,GCTCTGTA,-0.176
10,AGTAAAAA,-0.0778
11,AGTAGGGA,-0.146
12,CTACGCTC,-0.152
13,ATCTCCTC,0.0159
14,AAGGGTTA,-0.0743
15,ATTTTGCG,0.0291
16,GCGCCCCC,-0.146
17,CCGTCGAG,0.224
18,AAATAATT,0.157
19,GACGCCGC,0.155

# Reference: the supplement of paper PMC3334620
